Test results as given in the antibiotic and cytotoxicity screens of Wong et al. (2023).
This is one part of the list.

What follows are molecules tested on S. aureus RN4220 (assay: growth inhibition call (relative growth <= 0.2)). Details: 50 µM.

Growth inhibition call, inactive:
CO[C@H]1CN(C)C(=O)c2ccc(NC(=O)C3CC3)cc2OC[C@H](C)N(C(=O)Cc2ccccn2)C[C@@H]1C, C[C@@H]1CCCCO[C@@H](CN(C)C(=O)Nc2cccc3ccccc23)[C@H](C)CN([C@@H](C)CO)C(=O)c2cc(NS(=O)(=O)c3ccc(Cl)cc3)ccc2O1, C[C@@H]1CCCCO[C@@H](CN(C)S(=O)(=O)c2cn(C)cn2)[C@H](C)CN([C@H](C)CO)C(=O)c2cc(N(C)C)ccc2O1, C[C@H](CO)N1C[C@H](C)[C@@H](CN(C)S(C)(=O)=O)OCCCC[C@H](C)Oc2ccc(NC(=O)c3ccncc3)cc2C1=O, C[C@@H]1CCCCO[C@H](CN(C)CC2CCCCC2)[C@@H](C)CN([C@H](C)CO)C(=O)c2cc(NC(=O)CCC(F)(F)F)ccc2O1, NCCC(=O)N1c2ccccc2Sc2ccccc21, Cc1noc(C)c1NC(=O)N(C)C[C@@H]1OCCCC[C@H](C)Oc2ccc(NC(=O)c3ccccc3)cc2C(=O)N([C@@H](C)CO)C[C@@H]1C, C[C@H](CO)N1C[C@H](C)[C@H](CN(C)Cc2ccc(-c3ccccc3)cc2)Oc2ccc(NC(=O)Cc3cn(C)c4ccccc34)cc2CC1=O, COc1ccc([Si](C)(C)[C@H]2[C@H](CC(=O)N3CCC[C@H]3CO)O[C@@]3(C(=O)N(Cc4ccc(N5C(=O)c6cccc7cccc5c67)cc4)c4ccccc43)[C@@H]2C)cc1
